The list shows a part of the results.

The assay has as its system PfSIP2 AP2 domain 1 (GST-tagged). As to the kind of experiment: gcPBM binding intensity (ln(normalized median fluorescence intensity)); higher = stronger DNA binding. In outline:
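GST-tagged P. falciparum DNA-binding domains, expressed in E. coli (about 25 μg on average), were applied for 1 h to an Agilent 4 × 180k array of primer-extended double-stranded 36-bp intergenic genomic probes plus negative controls. The binding buffer was 1× PBS with 1% milk, 0.2 mg/ml BSA, 0.5% salmon testes DNA and 0.03% Triton X-100. Bound protein was detected with Alexa488 anti-GST antibody and scanned at 488 nm. Binding intensity is the highest Masliner-normalised natural-log median intensity across replicate spots of either probe orientation.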
For “TTTTCTTTTAATATTTTTAATAATTATATTTTGAAA [XGTACX_negctrl_site495]”, the “gcPBM binding intensity (ln)” value stood at 6.75. On to “AAATTACTAATGTGCACACATACTAACGTTTAAATA [CACACA_site3572]”, for which the “gcPBM binding intensity (ln)” value came out at 9.88. With AAAAATGTAAAGTGCGTGCACAAAATATTTGGAAAA, the “gcPBM binding intensity (ln)” value came to 9.43. Under “CACATATAGTTATATGCACACATCTTACACATATAT [CACACA_site3692]” stands 7.2; under “TATCTGTATTTATATACACACATATTCTTTTTACAC [CACACA_site4798]”, 7.11; under “AAAATCACAAAACACACACACACAAAAAAAAAAAAA [CACACA_site1443]”, 7.

In the case of “GTTTGAAGAACTATAAATGTATAAATAAAAGTTTAG [TGCATGCA_negctrl_site222]”, the “gcPBM binding intensity (ln)” value came to 6.88. As for “ATGGTGCAACATTATGCACACCGTTAAATAACTAAT [CACACA_site9280]”, the “gcPBM binding intensity (ln)” value is 11.8. As for “AAAAAAGTAAAAAAAGCACACACGAAAAAAAATAAA [CACACA_site2233]”, the “gcPBM binding intensity (ln)” value worked out at 6.9. Under “CATGGGCAAATATTCTCACACATAAACATAAACATA [CACACA_site4597]” stands 7.07. Under “GGGAATTATGAAAAAAGTACAGAACAAAAGTAAAAG [XGTACX_site2861]” stands 7.17; under “ATATAGTAAAATTATACACACATGAATTTTCCCATG [CACACA_site1770]”, 6.89.

For “TACAAAAATGAAAAAAGTACATATCATTTAATATAA [XGTACX_site8066]”, the “gcPBM binding intensity (ln)” value was 6.92. Turning to “TTTTTTTTTTTTTTTTGTACTCATAAAAATATATTA [XGTACX_site3458]”, the “gcPBM binding intensity (ln)” value worked out at 7.04. Take “CATATATATATATATACACACACACCGTCCGTGTTA [CACACA_site8975]”: the “gcPBM binding intensity (ln)” value came to 7.34.

“ATTACATGATATATCACACACACATATAAATATATA [CACACA_site2830]”: the “gcPBM binding intensity (ln)” value came to 7.26. Take “GAATAAATAAATAAATGTACATATATATTTATTTAT [XGTACX_site243]”: the “gcPBM binding intensity (ln)” value was determined as 6.8. Consider “GTTCGAAGTATAATTTGTACATATAAAATGGTTCCC [XGTACX_site382]”, for which the “gcPBM binding intensity (ln)” value worked out at 6.79. Regarding “ATATGTATTTATATATGTTTGAATTTTTTTTTTTTT [CACACA_negctrl_site5]”, the “gcPBM binding intensity (ln)” value came out at 6.83. Consider “ATTTGATCAACAAAACGTACACATATTTTCATGTGT [XGTACX_site447]”, for which the “gcPBM binding intensity (ln)” value is 6.98.

On to “ATTTTTGTGACTAAGACATGCATAAGAGTAAAGAAA [TGCATGCA_site619]”, for which the “gcPBM binding intensity (ln)” value came to 7.65. For “ACATATATTATATAACGTACATAACACTATTTCCTT [XGTACX_site6938]”, the “gcPBM binding intensity (ln)” value was 7.35. Consider “TTTTTTTTTTGTAATTGTACTTTTTTAATACTTCTA [XGTACX_site4195]”, for which the “gcPBM binding intensity (ln)” value is 6.93. As for “TATACATATATATACACACACATATATATATATATA [CACACA_site4]”, the “gcPBM binding intensity (ln)” value was 9.01.

“TATATATATATATTCACACATAAATATATGCACCCA [CACACA_site4263]”: the “gcPBM binding intensity (ln)” value came to 11.6. Consider “TAAGTCGCCAAAAGGTGTACACATAATGCATTATCA [XGTACX_site8852]”, for which the “gcPBM binding intensity (ln)” value came out at 6.91. The same measure for “AGTATAGTTATAAATTGTACATATTATTTATTTTAT [XGTACX_site949]”: 6.92; for “TAATATCATTTAGACACACACTCTTACAATCTGTAA [CACACA_site2590]”: 6.84. As to “AATCATTTATGGAAAGCATGCTAAATTAGAGTATAC [TGCATGCA_site172]”, the “gcPBM binding intensity (ln)” value stood at 7.03. The same measure for “ATCTAAACCTTTTGAGCACACATATATATATATATA [CACACA_site8526]”: 9.68; for “ATGGGGAATAATGAATGTACACAAATAAAAAGTTGG [XGTACX_site4015]”: 7.13; for “TAAAAATAAAAATAACGTACATACATACTTATATAT [XGTACX_site3745]”: 6.89. Regarding “TAATTTTTTTAAAACACACAAATATGTAAATATGTA [CACACA_site7769]”, the “gcPBM binding intensity (ln)” value is 6.84. For “GATTTTCATATTTTTTGTACTTACATTTTTCTATAC [XGTACX_site6002]”, the “gcPBM binding intensity (ln)” value amounted to 7.36.

As to “ATAAAATCTTAATCAACAAACAAACAAAAAAAAAAT [CACACA_negctrl_site1161]”, the “gcPBM binding intensity (ln)” value is 6.9. For “TATGTGATATATTTATCACACATTATATATATATAT [CACACA_site5103]”, the “gcPBM binding intensity (ln)” value is 9.38. The same measure for “ATTCATTTTAATATGGGTACATAAAAATAAAAAGAA [XGTACX_site2801]”: 7.45; for “TAATATGAAAAGTGTACACACGCACAGACAAAAAAA [CACACA_site5594]”: 7.33; for “GCATAAATCAGACACACACACATATATAAATATGTA [CACACA_site7187]”: 7.13. As to “AATATTTAATTCAACACACATACATATTTATTAAAA [CACACA_site2342]”, the “gcPBM binding intensity (ln)” value worked out at 7.15. On to “TACATTTTTATTTTTACACACATATTTATTTATATA [CACACA_site6609]”, for which the “gcPBM binding intensity (ln)” value turned out to be 7.21. “TATGATGATGAATAACGTACAAAAAAATTAATCACC [XGTACX_site6794]”: the “gcPBM binding intensity (ln)” value came out at 7.4.

On to “ATAAATATATGGTTTCATTATATTAAATTCAATTTA [CACACA_negctrl_site213]”, for which the “gcPBM binding intensity (ln)” value is 6.75. As for “TGTTTATTTTTTTTATGTACTTATTTTTTATTGCAT [XGTACX_site719]”, the “gcPBM binding intensity (ln)” value was 7.61.

These data come from the supplement of paper PMC11417369.
